Results reported in PubChem BioAssay AID743279 (National Center for Advancing Translational Sciences (NCATS), 2014).
In all, about 360,000 compounds went through this assay and about 17,000 (4.7%) were called active. The inconclusive results got no clear call from the source; some entries with a clear call stand among them for comparison. Rule as the data show it: active = activity change below about -50%; inconclusive = mostly about -30% to -49%; inactive = weaker than that.

Experiment: qHTS for Inhibitors of Inflammasome Signaling: IL-1-beta AlphaLISA Primary Screen
Settings: THP-1 LPS/ATP IL-1B secretion, 16 h; at 57.5 µM, stronger effect = lower value
Summary of the method: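 THP-1 cells pretreated 1 hr with compounds (up to 57.5 uM final), then stimulated with LPS (250 ng/mL final) plus ATP (1.25 mM final); secreted IL-1B measured by AlphaLISA after 16 hr, decreased signal indicating inhibition.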
% is scaled to controls: 0 for no effect and ±100 for the full control effect.

Row | SMILES | activity change
1 | CCOc1ccc(NC(=O)Nc2ccc3nsnc3c2)cc1 | inconclusive: -36.3%
2 | COc1cc(/C=N/NC(N)=O)cc(Br)c1OCc1ccc(C)cc1 | inactive: 6.56%
3 | CCCn1c(SCC(=O)Nc2nc3c(s2)CCCC3)nc2c1c(=O)n(C)c(=O)n2C | inactive: 16.2%
4 | C[C@H](CO)N1C[C@H](C)[C@@H](CN(C)C(=O)Nc2ccc(C(F)(F)F)cc2)Oc2ccc(NC(=O)Nc3ccc(C(F)(F)F)cc3)cc2C1=O | inconclusive: -35.6%
5 | CCCCCCCNC(=O)C1(CC2CC(c3cccc(Br)c3)=NO2)CCN(C(=O)CCCCCBr)CC1 (stereo not drawn) | inconclusive: -49.9%
6 | COc1ccc(C(=O)N/C(=C\c2cn(S(=O)(=O)N(C)C)c3ccccc23)C(=O)NCCCN2CCOCC2)cc1 | inactive: 10.1%
7 | CC#CC(=O)N1CCC(CCC(=O)N(C)Cc2ccccc2)CC1 | inconclusive: -34%
8 | COc1cc(F)ccc1-c1cc(C(=O)Nc2cc(OC)c(OC)c(OC)c2)[nH]n1 | inconclusive: -30.3%
9 | COc1ccc(C)cc1NC(=O)C/C(C)=N/NC(=O)Cc1cccc2ccccc12 | inconclusive: -34.1%
10 | Cc1cccc(NC(=O)c2ccccc2-c2ccccc2)c1 | inconclusive: -30%
11 | CCCC(C)c1nnc(NC(=O)C2CCCO2)s1 (stereo not drawn) | inactive: 15.3%
12 | Cc1cc(OC(=O)c2c(Cl)cccc2Cl)nc(C)n1 | inconclusive: -44.4%
13 | COc1ccc(S(=O)(=O)Nc2ccc3c(c2)C(=O)N([C@H](C)CO)C[C@H](C)[C@@H](CN(C)S(=O)(=O)c2ccc(OC)cc2)O3)cc1 | inconclusive: -46.1%
14 | COc1ccc(/C=N\NC(=O)c2ccc(=O)[nH]n2)cc1O | inconclusive: -39.9%
15 | C=CCc1cc(Cl)ccc1OCCNCCCOC | inconclusive: -32.6%
16 | c1ccc(Sc2cccc3ccccc23)c(CNC2=NCCN2)c1 | inconclusive: -35%
17 | OCCC1CN(Cc2cccn2-c2ccccn2)CCN1Cc1ccccc1 (stereo not drawn) | inactive: 4.65%
18 | CCOC(=O)C1(C)CCCN1C(=O)c1ccc(OC)c(OC)c1 (stereo not drawn) | inactive: 25.9%
19 | CCN(CC)c1ccc(S(=O)(=O)N2CCOCC2)cc1NC(=O)C1CC1 | inactive: 0%
20 | Cc1ccc(NC(=O)CN(C)Cc2nc3ccccc3c(=O)[nH]2)c(Br)c1 | inconclusive: -34.8%
21 | O=C(NCc1ccc2c(c1)OCO2)c1ccc(S(=O)(=O)C(F)F)cc1 | inconclusive: -30.2%
22 | CCN1C(=NCCc2ccccn2)N[C@@H](c2cccc(C(F)(F)F)c2)C(C(=O)OC)=C1C | inconclusive: -33.2%
23 | O=C(NCCN1CCN(c2ccccc2)CC1)Nc1ccc(Cl)cc1 | inconclusive: -47.9%
